# Measurements as given in PubChem BioAssay AID624296 (National Center for Advancing Translational Sciences (NCATS), 2012).
# Among all 350,000 compounds or so, about 9,900 (2.8%) were called active. This list was built around the results that the source calls inconclusive (neither active nor inactive); the mix of calls is not that of the screen. The call rests on the fitted dose curve; in most records, active means well fitted activation curve with a large enough effect; inconclusive means small, poorly fitted or top-dose-only effect; inactive means no such curve, though single readings can be large or run the other way. Potencies of inconclusive entries are left out as doubtful fits.
# Assay: A quantitative high throughput screen for small molecules that induce DNA re-replication in MCF 10a normal breast cells. Further: nearly all actives have a fitted effect of over 50% in size. On activity, positive = re-replication: % of control where 0% means no effect.
# Settings: MCF 10A DNA re-replication, Hoechst nuclear intensity, 48 h; activity, positive = re-replication: at 46.1 µM (top of the series)
# Potency means the concentration at half of the fitted maximal effect; tags describe the fitted curve by direction and shape.
Compound,Potency,"activity, positive = re-replication"
CC(=O)Nc1nn(C)c2nc3cc(C)ccc3cc12,inactive,
CN1CCN(CCCNC(=O)c2ccc(/C=C3/Sc4ccccc4N(Cc4cccc(Cl)c4)C3=O)cc2)CC1,"inconclusive [activator, single point]",
O=C(Nc1cccc(S(=O)(=O)C(F)F)c1)c1ccc(S(=O)(=O)N2CCCCC2)cc1,inactive,
COc1ccc(-c2ccc(-c3nc4ccc(C)cn4c3NC3CCCCC3)cc2OC)cc1,"inconclusive [activator, partial curve, poor fit]",
COc1ccc(NC(=O)/C(C#N)=C/c2ccc(-c3ccc(Cl)c(C(=O)O)c3)o2)cc1,inactive,
CC1=NN(c2ccccc2)C(c2ccco2)C1 (configuration not stated),"inconclusive [activator, partial curve, poor fit]",
Cc1ccc(S(=O)(=O)Cc2cc(-c3ccc(Cl)cc3)no2)cc1,inactive,
Cc1nc2c3cc(F)ccc3n(Cc3ccc(F)cc3)c2s1,"inconclusive [activator, full curve, poor fit]",
Cc1ccc(NC(=S)N2CCC(O)CC2)c(C)c1,"inconclusive [activator, partial curve, poor fit]",
CC(=O)NC(NC(=S)Nc1ccc(N=Nc2ccccc2)cc1)C(Cl)(Cl)Cl (configuration not stated),"inconclusive [activator, single point]",
O=S(=O)(c1ccc(C2CCCCC2)cc1)N1CCN(c2ncccn2)CC1,"inconclusive [activator, full curve, poor fit]",
CC(C)(C)c1ccc(OCC(=O)NNC(=S)NC(=O)c2ccco2)c(Br)c1,"inconclusive [activator, partial curve, poor fit]",
COC1=C/C(=C/c2c(N)n3c(nc2=O)sc2cc(S(C)(=O)=O)ccc23)C=CC1=O,"inconclusive [activator, partial curve, poor fit]",
Cc1cccc(-c2c3c(=O)n(C)c(=O)n(C)c3cn2-c2ccc(O)cc2)c1,"inconclusive [activator, partial curve, poor fit]",
COc1ccccc1N(CC(O)COc1c(C)cc(C)cc1C)S(=O)(=O)c1ccccc1 (configuration not stated),"inconclusive [activator, single point]",
CCc1ccc(NC(=O)c2sc3nc(C)nc(N4CCN(c5ccccn5)CC4)c3c2C)cc1,"inconclusive [activator, full curve, poor fit]",
Cc1ccc(Sc2ncccc2C(=O)NCc2cc([N+](=O)[O-])ccc2O)cc1C,"inconclusive [activator, full curve, poor fit]",
CC(=O)Nc1ccc(Nc2c3ccccc3nc3ccccc23)cc1,"inconclusive [activator, single point]",
Cc1cc(C)n2nc(-c3ccsc3-n3c(C)ccc3C)cc2n1,"inconclusive [activator, single point]",
COc1cc(NS(=O)(=O)c2ccc(N/C=C(\C#N)c3nc4cc(Cl)ccc4o3)cc2)nc(OC)n1,"inconclusive [activator, partial curve, poor fit]",
C=C(Br)Cn1c(CC(C)C)nc2ccccc21,inactive,
O=C(c1ccccc1F)N(Cc1ccccc1)Cc1ccccc1,"inconclusive [activator, single point]",
C/C(=N\Nc1nc2ccccc2[nH]1)c1ccc(Cl)s1,"inconclusive [activator, single point]",

Compound,Potency,"activity, positive = re-replication"
C/C(=N\NC(=O)CC#N)c1ccc(Oc2ccccc2)cc1,"inconclusive [activator, single point]",
Cc1ccccc1CNC(=O)C1CCCN(c2nnc(C)c3c(C)n(-c4ccccc4)nc23)C1 (configuration not stated),"inconclusive [activator, single point]",
Cn1c(SCC(=O)NC2CC2)nnc1-c1ccc(Cl)cc1,inactive,
O=C(c1cccc(N2C(=O)C3C4C=CC(C4)C3C2=O)c1)N1CCN(c2ccccc2)CC1 (configuration not stated),inactive,
Cc1ccc(C(=O)NC2CCN(CC(=O)Nc3ccccc3Cl)CC2)cc1,"inconclusive [activator, partial curve, poor fit]",
O=C(Nc1ccc(F)cc1)c1cn(-c2ccccc2)nc1-c1ccncc1,"inconclusive [activator, full curve]",
CCOC(=O)c1c(NC(=O)C2CC(Cl)=CCC2C(=O)O)sc2c1CCCCC2 (configuration not stated),"inconclusive [activator, single point]",
Cc1ccccc1CNC(=O)CCn1nc(C)c2c(C)n(-c3ccccc3)nc2c1=O,"inconclusive [activator, partial curve, poor fit]",
Cc1oc2ccc(NS(=O)(=O)c3ccc(F)cc3)cc2c1C(=O)O,inactive,
COc1ccc(-c2nn(-c3ccccc3)cc2C(=O)N(C)CC(=O)Nc2ccc(N3CCOCC3)cc2)cc1,inactive,
CCOc1ccc(/C=C/C(O)=C2/C(=O)N(C)C3(C)CC2c2ccccc2O3)cc1OC (configuration not stated),"inconclusive [activator, single point]",
NC1=NC[C@H](Cc2ccc(O)cc2)N1CCc1cc(C(F)(F)F)cc(C(F)(F)F)c1,inactive,
CCCSC1=C(C#N)C(c2cccnc2)C(C(=O)OCC)=C(c2ccccc2)N1 (configuration not stated),"inconclusive [activator, partial curve]",
COc1ccc(/C=N/Nc2ncnc3c2[nH]c2ccccc23)c(OC)c1OC,"inconclusive [activator, full curve]",
CC(C)c1ccc(CN(C(=O)/C=C/c2ccco2)C2CCS(=O)(=O)C2)cc1 (configuration not stated),inactive,
O=C(Nc1ccccc1C(=O)N1CCCC1)c1cccc(S(=O)(=O)N2CCCCCC2)c1,inactive,
Cc1ccccc1NC(=O)NNC(=O)c1ccc2ccccc2c1O,,inconclusive: -42.7% [activator]
CCOC(=O)C1CCCN(c2ncnc3c2oc2ccccc23)C1 (configuration not stated),inactive,
N#C/C(=C\c1ccc(OCc2ccc(F)cc2)cc1)C(=O)Nc1cccc(C(=O)O)c1,inactive,
COc1cccc(NC(=O)CS(=O)(=O)Cc2nc(-c3ccc(C)cc3)oc2C)c1,inactive,
Cc1ccc(N(CC(=O)Nc2ccc3c(c2)OCCO3)S(C)(=O)=O)cc1,inactive,
COc1cc2nc(N3CCN(c4cc(C)ccc4C)CC3)nc(N)c2cc1OC,active: 6.51 µM,
COC(=O)c1c(-c2cccc3ccccc23)csc1NC(=O)Cc1ccc(OC)c(OC)c1,"inconclusive [activator, partial curve, poor fit]",

Compound,Potency,"activity, positive = re-replication"
COc1ccc(N2C(=O)CSC23C(=O)Nc2ccccc23)cc1 (configuration not stated),"inconclusive [activator, partial curve, poor fit]",
O=NCc1ccc([N+](=O)[O-])o1,inactive,
Cc1cc(C)c(C#N)c(SCCN2CCOCC2)n1,inactive,
O=C(/C=C/c1ccccc1Cl)Nc1ccc(-c2nnc3n2CCCCC3)cc1,"inconclusive [activator, single point]",
CCn1nc(NC(=O)c2cccnc2)c2cc3cccc(C)c3nc21,active: 7.08 µM,
O=C(N/N=C/c1cccc2ccccc12)c1cccc(F)c1,"inconclusive [activator, single point]",
CC1=C(C(=O)OCC2CCCCC2)C(c2ccccc2F)NC(=O)N1 (configuration not stated),"inconclusive [activator, full curve, poor fit]",
C[C@H]1CN=C2N(CCNC(=O)CCC3CCCCC3)[C@H](Cc3ccc(O)cc3)CN21,"inconclusive [activator, single point]",
Cc1cccc(C)c1NC(=O)CCCSc1nnc(-c2ccc(F)cc2)n1-c1ccccc1,"inconclusive [activator, single point]",
COC(=O)c1ccc(NC(=S)NCCc2cccc(C)c2)cc1,"inconclusive [activator, partial curve, poor fit]",
O=C(N1CCCC1)C12CC3CCC(CC(C3)C1)C2,"inconclusive [activator, single point]",
COc1ccc(-c2c[n+]3c4n2CCCCC4=C(c2ccc(Br)cc2)C3)cc1,"inconclusive [activator, single point]",
Cc1cc(C)nc(SCC(=O)Nc2ncccn2)n1,,inconclusive: 99.7% [activator]
O=C(COC(=O)c1cnccn1)NC1CCCc2ccccc21 (configuration not stated),inactive,
CC(C)(C)CNC(=O)c1cccc2c1C(=O)c1ccc(-c3cc4ccccc4o3)cc1S2(=O)=O,inactive,
C=CC[C@@H](Cc1ccc(F)cc1)C(=O)OC[C@H]1CCCN1C(=O)[C@H](CC=C)CC(=O)N(CCO)Cc1ccccc1,"inconclusive [activator, partial curve, poor fit]",
CC1=NN(c2nc(-c3ccc(F)cc3)cs2)C(=O)C1,"inconclusive [activator, partial curve, poor fit]",
O=C1CC2(CCN(C(=O)c3ccc(Br)cc3)CC2)Oc2ccccc21,inactive,
CCOC(=O)Nc1nnc(Cc2ccc(Cl)c(Cl)c2)s1,"inconclusive [activator, partial curve, poor fit]",
CCCSc1nc(-n2ncc(C#N)c2N)c2c3c(sc2n1)CCC(C)C3 (configuration not stated),"inconclusive [activator, single point]",
COCCNc1nc(-c2cc(-c3ccccc3)on2)cc(C(C)C)n1,"inconclusive [activator, partial curve]",
